The target of experiment [1] is T1, AT-HOOK MOTIF NUCLEAR LOCALIZED 28 (AHL28), luciferase-half fusions for LCI (Arabidopsis thaliana) (UniProt Q9M9R4).
T1 sequence: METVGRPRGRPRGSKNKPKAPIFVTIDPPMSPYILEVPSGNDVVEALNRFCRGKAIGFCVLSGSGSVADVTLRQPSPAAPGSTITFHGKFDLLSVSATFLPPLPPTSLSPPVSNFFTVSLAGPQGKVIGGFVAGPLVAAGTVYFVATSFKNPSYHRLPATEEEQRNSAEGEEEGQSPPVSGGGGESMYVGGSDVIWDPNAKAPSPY
The experiment is described as follows: split reporter; luciferase complementation imaging (LCI, also printed LIC): X-nLUC and cLUC-Y co-infiltrated by Agrobacterium into N. benthamiana leaves; LUC activity detected 2 days after infiltration.

Sequences of proteins named here, by UniProt entry; tags and fusion partners are left off.
UniProt P22953: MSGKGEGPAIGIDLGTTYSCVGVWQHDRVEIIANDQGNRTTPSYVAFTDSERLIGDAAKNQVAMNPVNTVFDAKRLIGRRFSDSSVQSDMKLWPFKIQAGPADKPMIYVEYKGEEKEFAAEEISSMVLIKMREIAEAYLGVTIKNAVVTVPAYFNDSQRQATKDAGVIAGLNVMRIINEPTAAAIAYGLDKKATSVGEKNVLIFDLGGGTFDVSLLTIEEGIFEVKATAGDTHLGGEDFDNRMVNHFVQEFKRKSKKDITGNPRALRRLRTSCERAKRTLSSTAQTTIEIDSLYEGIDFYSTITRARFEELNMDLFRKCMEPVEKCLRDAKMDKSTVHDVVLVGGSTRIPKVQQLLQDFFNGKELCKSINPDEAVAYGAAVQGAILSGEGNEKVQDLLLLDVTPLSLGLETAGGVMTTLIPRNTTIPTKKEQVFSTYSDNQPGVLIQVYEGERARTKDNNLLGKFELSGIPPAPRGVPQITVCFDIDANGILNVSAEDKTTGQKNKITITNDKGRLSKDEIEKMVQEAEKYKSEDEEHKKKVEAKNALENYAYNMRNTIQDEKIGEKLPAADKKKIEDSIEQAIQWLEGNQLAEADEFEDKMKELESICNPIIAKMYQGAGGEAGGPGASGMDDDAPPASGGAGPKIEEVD

Experiment [2] addresses AT-HOOK MOTIF NUCLEAR LOCALIZED 17 (AHL17), luciferase-half fusions for LCI (Arabidopsis thaliana) (UniProt Q9LTA2). Described as above.
For experiment [3], the target named is myc-tagged HSP70-1 (HSP70-1-myc) (Arabidopsis thaliana) (UniProt P22953). The experiment is described as follows: co-IP; RHD6-GFP, HSP70-1-myc and AHL17-FLAG co-expressed in N. benthamiana leaves; precipitated with anti-myc beads or anti-GFP beads; western blot with anti-GFP, anti-myc and anti-FLAG. Background: Immunoblotting shows a protein as a band on a membrane.

In experiment [4] the target is AHL17, YFP-half fusion for BiFC (Arabidopsis thaliana) (UniProt Q9LTA2). The experiment is described as follows: split reporter; BiFC: nYFP and cYFP fusions co-infiltrated into N. benthamiana leaves; YFP fluorescence examined 2 days after infiltration by confocal microscopy.
For experiment [5], the target named is T2, AHL28, YFP-half fusions for BiFC (Arabidopsis thaliana) (UniProt Q9M9R4).
T2 sequence: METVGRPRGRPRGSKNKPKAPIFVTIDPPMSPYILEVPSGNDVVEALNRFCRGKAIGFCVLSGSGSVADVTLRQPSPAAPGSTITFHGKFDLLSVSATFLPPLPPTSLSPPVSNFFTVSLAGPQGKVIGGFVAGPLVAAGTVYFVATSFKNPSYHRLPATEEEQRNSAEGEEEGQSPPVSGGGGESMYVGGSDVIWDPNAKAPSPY
Described as above.

No constants are given. Whether binding was seen depends on the method and setting. In cells and extracts the contact can be indirect. Some entries that bind do so weakly or less than the wild type. Tags and fused reporters may be left off the sequences shown.

B1: RHD6-LIKE1 (RSL1), luciferase-half fusion for LCI (protein, UniProt Q9FJ00 1-307)
chain: MSLINEHCNERNYISTPNSSEDLSSPQNCGLDEGASASSSSTINSDHQNNQGFVFYPSGETIEDHNSLMDFNASSFFTFDNHRSLISPVTNGGAFPVVDGNMSYSYDGWSHHQVDSISPRVIKTPNSFETTSSFGLTSNSMSKPATNHGNGDWLYSGSTIVNIGSRHESTSPKLAGNKRPFTGENTQLSKKPSSGTNGKIKPKATTSPKDPQSLAAKNRRERISERLKVLQELVPNGTKVDLVTMLEKAIGYVKFLQVQVKVLAADEFWPAQGGKAPDISQVKEAIDAILSSSQRDSNSTRETSIAE
As to B1, the binding entry in experiment [1] and in experiment [2] was “no binding” throughout.

B2: RHD6-GFP (protein, UniProt Q9C707 1-298)
chain: MALVNDHPNETNYLSKQNSSSSEDLSSPGLDQPDAAYAGGGGGGGSASSSSTMNSDHQQHQGFVFYPSGEDHHNSLMDFNGSSFLNFDHHESFPPPAISCGGSSGGGGFSFLEGNNMSYGFTNWNHQHHMDIISPRSTETPQGQKDWLYSDSTVVTTGSRNESLSPKSAGNKRSHTGESTQPSKKLSSGVTGKTKPKPTTSPKDPQSLAAKNRRERISERLKILQELVPNGTKVDLVTMLEKAISYVKFLQVQVKVLATDEFWPAQGGKAPDISQVKDAIDAILSSSQRDRNSNLITN
On to B2, for which, in experiment [3], the binding result is “binds”.

B3: RHD6, nYFP fusion for BiFC (protein, UniProt Q9C707 1-298)
chain: MALVNDHPNETNYLSKQNSSSSEDLSSPGLDQPDAAYAGGGGGGGSASSSSTMNSDHQQHQGFVFYPSGEDHHNSLMDFNGSSFLNFDHHESFPPPAISCGGSSGGGGFSFLEGNNMSYGFTNWNHQHHMDIISPRSTETPQGQKDWLYSDSTVVTTGSRNESLSPKSAGNKRSHTGESTQPSKKLSSGVTGKTKPKPTTSPKDPQSLAAKNRRERISERLKILQELVPNGTKVDLVTMLEKAISYVKFLQVQVKVLATDEFWPAQGGKAPDISQVKDAIDAILSSSQRDRNSNLITN
Take B3: the binding entry in experiment [4] and in experiment [5] was “no binding” throughout.

B4: ROOT HAIR …6 (RHD6), luciferase-half fusion for LCI (protein, UniProt Q9C707 1-298)
chain: MALVNDHPNETNYLSKQNSSSSEDLSSPGLDQPDAAYAGGGGGGGSASSSSTMNSDHQQHQGFVFYPSGEDHHNSLMDFNGSSFLNFDHHESFPPPAISCGGSSGGGGFSFLEGNNMSYGFTNWNHQHHMDIISPRSTETPQGQKDWLYSDSTVVTTGSRNESLSPKSAGNKRSHTGESTQPSKKLSSGVTGKTKPKPTTSPKDPQSLAAKNRRERISERLKILQELVPNGTKVDLVTMLEKAISYVKFLQVQVKVLATDEFWPAQGGKAPDISQVKDAIDAILSSSQRDRNSNLITN
With B4, the binding entry in experiment [1] and in experiment [2] was “no binding” each time.

B5: RHD6-LIKE4 (RSL4), luciferase-half fusion for LCI (protein, UniProt Q8LEG1 1-258)
chain: MDVFVDGELESLLGMFNFDQCSSSKEERPRDELLGLSSLYNGHLHQHQHHNNVLSSDHHAFLLPDMFPFGAMPGGNLPAMLDSWDQSHHLQETSSLKRKLLDVENLCKTNSNCDVTRQELAKSKKKQRVSSESNTVDESNTNWVDGQSLSNSSDDEKASVTSVKGKTRATKGTATDPQSLYARKRREKINERLKTLQNLVPNGTKVDISTMLEEAVHYVKFLQLQIKLLSSDDLWMYAPLAYNGLDMGFHHNLLSRLM
Regarding B5, the binding result in experiment [1] and in experiment [2] was “no binding” each time.

B6: RHD6-LIKE2 (RSL2), luciferase-half fusion for LCI (protein, UniProt Q84WK0 1-352)
chain: MEAMGEWSNNLGGMYTYATEEADFMNQLLASYDHPGTGSSSGAAASGDHQGLYWNLGSHHNHLSLVSEAGSFCFSQESSSYSAGNSGYYTVVPPTVEENQNETMDFGMEDVTINTNSYLVGEETSECDVEKYSSGKTLMPLETVVENHDDEESLLQSEISVTTTKSLTGSKKRSRATSTDKNKRARVNKRAQKNVEMSGDNNEGEEEEGETKLKKRKNGAMMSRQNSSTTFCTEEESNCADQDGGGEDSSSKEDDPSKALNLNGKTRASRGAATDPQSLYARKRRERINERLRILQNLVPNGTKVDISTMLEEAVHYVKFLQLQIKLLSSDDLWMYAPIAFNGMDIGLSSPR
Consider B6, for which the binding entry in experiment [1] and in experiment [2] was “no binding” in each case.

B7: AHL19, luciferase-half fusions for LCI (protein, UniProt Q9SR17 1-315)
chain: MANPWWTGQVNLSGLETTPPGSSQLKKPDLHISMNMAMDSGHNNHHHHQEVDNNNNDDDRDNLSGDDHEPREGAVEAPTRRPRGRPAGSKNKPKPPIFVTRDSPNALKSHVMEIASGTDVIETLATFARRRQRGICILSGNGTVANVTLRQPSTAAVAAAPGGAAVLALQGRFEILSLTGSFLPGPAPPGSTGLTIYLAGGQGQVVGGSVVGPLMAAGPVMLIAATFSNATYERLPLEEEEAAERGGGGGSGGVVPGQLGGGGSPLSSGAGGGDGNQGLPVYNMPGNLVSNGGSGGGGQMSGQEAYGWAQARSGF
Regarding B7, the binding result in experiment [1] and in experiment [2] was “binds” in each case.

B8: AT-HOOK MOTIF NUCLEAR LOCALIZED 28 (AHL28), luciferase-half fusions for LCI (protein, UniProt Q9M9R4 1-206)
chain: METVGRPRGRPRGSKNKPKAPIFVTIDPPMSPYILEVPSGNDVVEALNRFCRGKAIGFCVLSGSGSVADVTLRQPSPAAPGSTITFHGKFDLLSVSATFLPPLPPTSLSPPVSNFFTVSLAGPQGKVIGGFVAGPLVAAGTVYFVATSFKNPSYHRLPATEEEQRNSAEGEEEGQSPPVSGGGGESMYVGGSDVIWDPNAKAPSPY
B8: the binding entry in experiment [1] and in experiment [2] was “binds” throughout.

The values above are taken from publication PMC10416611.
